# According to the supplement of paper PMC11417369:
# ± gives the standard deviation of the averaged measurements. This is one part of the list.
# Tested on: PfAP2-EXP AP2 domain (GST-tagged)
# Assay: gcPBM binding intensity (ln(normalized median fluorescence intensity)); higher = stronger DNA binding
# Summary of the method: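 Binding intensity is defined as the maximum Masliner-normalised natural-log median intensity across replicate spots for either probe orientation. It was measured on an Agilent 4 × 180k array of primer-extended double-stranded 36-bp intergenic genomic probes and negative controls, to which GST-tagged P. falciparum DNA-binding domains made in E. coli were applied for 1 h in 1× PBS with 1% milk, 0.2 mg/ml BSA, 0.5% salmon testes DNA and 0.03% Triton X-100. Detection was by Alexa488 anti-GST antibody and scanning at 488 nm.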
row,Sequence,gcPBM binding intensity (ln)
1,TCTATCTTTTCCAAACGTACATTTTTTATATAAATT [XGTACX_site5352],8.84 ± 0.42
2,ATTTCATTTATAAGGATATCTACTTTTTATTTTAAT [GTGCAC_negctrl_site59],8.39 ± 0.36
3,TTTTTATTATTTAAATGTACATATAAATATATATAT [XGTACX_site6870],8.935 ± 0.021
4,CTTACAGACATATATACACACATGTATATTTTATAT [CACACA_site549],8.71 ± 0.35
5,AAGAAGAAACGGAAAAGTACAAAGAAGAAATAAGTA [XGTACX_site3680],9.19 ± 0.73
6,GAGGATGCCTATGGCACACATTATAAAACTGTCGCT [CACACA_site4322],8.31 ± 0.4
7,TTTTCTTTTCTCTTCTTTTTCTCCCATTATTAATCT [XGTACX_negctrl_site406],8.78 ± 0.58
8,ATGTTTTTAATTTATTGTACATTAATTTGTATTATT [XGTACX_site253],8.8 ± 0.37
9,ATATATAATATAAGATGTACAATAAAATCTATATAT [XGTACX_site546],8.61 ± 0.41
10,ATAACTTTATTTTCCTGTACACACATTTGACATATT [XGTACX_site7192],9.06 ± 0.35
11,CATAAAATTGTGAAGTGTACATATTTTTAAATATAA [XGTACX_site8986],8.63 ± 0.28
12,AGAAATATCTAATTGTGTACTCAAGAAAAAGTTACG [XGTACX_site372],8.69 ± 0.18
13,GGTAGTTATTATCTCCGTACTTATAAAGAAAAAAGG [XGTACX_site4674],8.63 ± 0.41
14,ATATTTTATATGTTCACACATACATAAACATATTTT [CACACA_site4948],8.59 ± 0.32
15,GAATAAAAATTTTAATGTACATATTTTTTATTTATA [XGTACX_site8935],8.35 ± 0.26
16,TTTATTTTCATATGAACACACATATAAATATTATAA [CACACA_site7172],8.46 ± 0.49
17,TACAAATATATAAAATGTACATATATATACATATTA [XGTACX_site3029],8.09 ± 0.21
18,AAAAAATATAAAAAAAGTACACAAAAACTACAAAAA [XGTACX_site2677],8.65 ± 0.42
19,AAAAAGAGGAAAAAGATAAAGAAATTAAAGGAGAGA [CACACA_negctrl_site423],8.73 ± 0.69
20,TTTAATCATTTTATTTGTACTCATAAAAAATATAAT [XGTACX_site5537],8.38 ± 0.36
21,ACAAAATAATTGTTTACACACCCATTTGTAATTTTA [CACACA_site3615],8.42 ± 0.35
22,TCTGTAAACATATTCACACACATAAATTCGCATATA [CACACA_site1866],8.6 ± 0.38
23,AAAATGAAATATGTTATATATATATATATATATATA [CACACA_negctrl_site1752],9.9 ± 0.4

row,Sequence,gcPBM binding intensity (ln)
1,TGTATGAAAATAAATGCATGCCAAATATATATATAT [TGCATGCA_site132],9.95 ± 0.4
2,GAAAATTTATATTGCACACATAGGGAATAAAAAAAA [CACACA_site2146],9.01 ± 0.48
3,TATCATTGTTCATGCTTGCACTTTTGTTACTGTTCC [GTGCAC_site9425],8.86 ± 0.4
4,TAATTTCCTTAAGAATGTACTTACATTTTATTATTT [XGTACX_site5998],8.32 ± 0.38
5,GTTTATGTATTATTATGTACGTATCATAATATATAT [XGTACX_site2385],8.86 ± 0.27
6,TAATATGAAATGTGTACACACGCACCCACAAAAAAA [CACACA_site8949],9.1 ± 0.21
7,ATGGACAAGTTAAACGCACACAAATATATACAGACA [CACACA_site1652],9.15 ± 0.73
8,AATGTATTAAAATTACGTACATATGCACATTTTATA [XGTACX_site5046],8.72 ± 0.085
9,TACTCTTTCCAGAAGTGTACATAGAAATAATTACAT [XGTACX_site2668],8.39 ± 0.71
10,TTTTTTATTTTGTGCACACACATAAAAATATAAATA [CACACA_site6497],8.76 ± 0.099
11,TATAAATACATACATACACACATATATATATATATT [CACACA_site6116],8.46 ± 0.35
12,TCCTAAAAAAAAAAAAAAAATGAAAAAGGAAAAAAA [CACACA_negctrl_site1646],8.26 ± 0.56
13,TAAAAATAATATATTTGTACATATGTGTATACATAA [XGTACX_site741],8.43 ± 0.31
14,AAAAAAAAAAAAAAAAGTACTAAATGTAAAAGAATA [XGTACX_site2164],8.51 ± 0.59
15,CAAGCACAGAAACACACACACACACCGACACAGACA [CACACA_site4359],8.52 ± 0.47
16,TTTTTTTTTTTTTTTTGTACATAATTATATATTTAC [XGTACX_site7540],8.29 ± 0.55
17,TAGTATTATTATTATGCACACAAAAATATTTATACA [CACACA_site9219],8.48 ± 0.17
18,AGCATTTCTTTTACATGTACATAATATTTTTAATAA [XGTACX_site1968],9.21 ± 0.42
19,TATATATGTATGTATGCATGCCCTTTTTTAAAAAAA [TGCATGCA_site434],9.07 ± 0.42
20,AAAAAAAAAAAAAAAAAAATAAAAAATAAATAAATA [CACACA_negctrl_site1498],8.36 ± 0.13
21,AAGAAAAAACAAACATGTACACATAATTTAGTTTTT [XGTACX_site3121],8.37 ± 0.2
22,CAATTAAAGAAAAACAGTACGTGTATCAAACATCCT [XGTACX_site8990],8.6 ± 0.47
23,ATTTTTCCTCTCTTTTGTACTTATATATATATATAT [XGTACX_site7405],10.1 ± 0.24

row,Sequence,gcPBM binding intensity (ln)
1,ATAAATACTTTTTGGTGTACACTTTTAAATGAAAAA [XGTACX_site3042],9 ± 0.11
2,ATATGCTAATAAAATTGTACATATTATTCATATTGT [XGTACX_site2344],8.29 ± 0.32
3,TGACTACATAAAATGACACACACAAACTTTAAAATT [CACACA_site9151],8.62 ± 0.4
4,ATATATTTTTAGCACAGTACAATATAATTAAATATA [XGTACX_site6779],8.54 ± 0.39
5,AAAAGTTGTTTATAATGTACAAGGTAGAAAAAAACA [XGTACX_site1454],9.04 ± 0.57
6,TAAATGGATTGTTCAGGTACACATAAATATGATATT [XGTACX_site6963],8.31 ± 0.37
7,ATATTATATAATAATGCATGCACCTTATTTTCATTT [TGCATGCA_site405],10.2 ± 0.44
8,ATTATATTATTTTAAAGTACACACATATATTAATAT [XGTACX_site4769],8.63 ± 0.24
9,AACAAAATAAAAATAACACACACATTTATATATATA [CACACA_site8313],9.13 ± 0.099
10,TATTATATCGAACACTGTACTTTTTTATTCAACCTA [XGTACX_site493],8.65 ± 0.45
11,GCCTTTTTATTTAGAACACACACAAAAAAAAAAAAA [CACACA_site8520],8.3 ± 0.37
12,AATAATAAATATATATATATATATATATATATATTT [CACACA_negctrl_site786],8.46 ± 0.014
13,ATATATATATATATAGTGCAAATATCTTCTTTATAA,10.3 ± 0.3
14,TAATAAACCAAACTAAACAATATATCAAAAAGCACA [CACACA_negctrl_site269],8.82 ± 0.33
15,TTTTCAATTAATAATACACACATGTATATATTATTA [CACACA_site3311],8.4 ± 0.47
16,TACAAATACATTACATGTACATATTTAATAATATCA [XGTACX_site2075],8.32 ± 0.11
17,AAGAAAAATATATATATAAATAAATAAATATATATA [TGCATGCA_negctrl_site330],8.27 ± 0.29
18,TTTGAAAAGTATGAGGTGCAAAAAATGTAATGAAAT,9.31 ± 0.25
19,TTTTTCTGTCGTTGTTGTACTTGAGGAGTAACAATT [XGTACX_site7852],8.92 ± 0.48
20,CATTTTAAAACAGACACACACCAAAAAAAAAAAAAA [CACACA_site6259],8.28 ± 0.56
21,TATATTATTATGCATAGTACGTACTGTGATAAGAAT [XGTACX_site2956],8.73 ± 0.35
22,ATATAAGAATAAATAGTGCAAAATAAATGATTATTT,8.79 ± 0.18
23,AATACGAAGGATAAGAGTACTAATTAAATAAATGAA [XGTACX_site523],8.96 ± 0.28

row,Sequence,gcPBM binding intensity (ln)
1,GTATATAAGTATATATGTACATATATTTTATATATA [XGTACX_site4745],8.42 ± 0.23
2,TTTTATAATTTAAAATAATGAAACTTCTTTCTATTT [TGCATGCA_negctrl_site324],8.08 ± 0.33
3,TTTTTTTTTTTTTTGGTGCGATCTTTTAAATGATCC,8.37 ± 0.49
4,TTTAAATTTTAATATGCACACAAAATGTTATATTAA [CACACA_site8015],8.3 ± 0.46
5,TTTCTGATATTTTTATATTTTCTTATATATATATAT [GTGCAC_negctrl_site652],9.94 ± 0.19
6,AAAAATATAATATAATGTACACAAAAAAAAAAAAAT [XGTACX_site4914],8.65 ± 0.37
7,ATTTGTAATTTATATTCACACATTCAAAAAAATGAG [CACACA_site6057],8.24 ± 0.4
8,TATAAATTTGTTGTTGCATGCAGTATACCAAAAAAA [TGCATGCA_site445],10.1 ± 0.52
9,TAAAATGTAATCTGAACACACATATTTTTTTAATAT [CACACA_site1768],8.12 ± 0.52
10,AATAGCCCATATGGAATACACACTGAAAATAAAAAA [CACACA_site3373],8.82 ± 0.52
11,CCATAAAAAGGATACACACACACACCGACATATATA [CACACA_site4653],8.65 ± 0.55
12,GTATTATATTTCAACTGTACGTAAAACTATTAAAAT [XGTACX_site3679],8.75 ± 0.27
13,ATAAAGCCATACAATACACACATTTTACATGGGGGT [CACACA_site9072],9.7 ± 0.38
14,CAAAAAAATGTGAAGGCATGCAAATATGTAAAATAA [TGCATGCA_site921],9.64 ± 0.42
15,TTCATTTAGCAAGAATGTACTTATATATATATATAT [XGTACX_site3401],9.93 ± 0.32
16,CTTTCTTATTTGAACGCATGCATTTGTACCTTTTAT [TGCATGCA_site671],9.78 ± 0.26
17,CATGCAAAAAATTCCACACACACACCCACATATAAA [CACACA_site1229],8.57 ± 0.47
18,TATATACAAAATGCCTGTACATATATATTTATTTAT [XGTACX_site761],8.38 ± 0.36
19,AATTATTTATCGGAATGTACATAAAAACATATGTAT [XGTACX_site7443],8.95 ± 0.44
20,AATAATATCATTTAGACACACACTCTTACAATATGT [CACACA_site8832],8.61 ± 0.45
